The values below come from paper PMC12136788.

The list shows a part of the results.

First the molecules themselves.
T1: UNK ZnF1-3 (human, UniProt Q9C0B0 31-174)
T1 sequence: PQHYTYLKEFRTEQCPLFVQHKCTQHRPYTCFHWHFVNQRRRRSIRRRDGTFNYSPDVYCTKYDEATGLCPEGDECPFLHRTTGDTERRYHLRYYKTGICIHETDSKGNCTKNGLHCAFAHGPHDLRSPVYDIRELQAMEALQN

B1: chrX:140365796:140365797:-_ENSMUSG00000031285_ENSMUST00000033642|mus_mus|mus_mus_mus_hu_False|48_48 (ssRNA)
RNA: GGGAGUUCUACAGUCCGACGAUCCUUCUCAUUACUCAGUGCCUGCAAGGUUCUGGUUCGGUAGAAGCUACAGUGGGCGCUGUGAGUGGGACUUGGAAACCCAUUCAUCCGGGAGCCUCGCAUGUUCCUGGAUGUCUUAUCUCUCAACAGAGGAUUGAGCAUCA
B2: chr14:78183846:78183847:+_ENSG00000119705_ENST00000557342|hu_hu|hu_hu_hu_mus_False|1_8 (ssRNA)
RNA: GGGAGUUCUACAGUCCGACGAUCUCUCAGAAAUCUUUCUUCAUCAGAUGUUUGAGCUCCGUGCAAAGCCUUUGCUCUUUGAGCUUGAACGUGGAUCUAUGGGAGGGAAAGCACUGUCAGAAAAGGUUGUAGUGCAUUCCGAAGCAACAGAGGAUUGAGCAUCA
B3: 83319208_83319328_4002_CDS_ENSMUSG00000034832_ENSMUST00000089622|mouse|control|control (ssRNA)
RNA: GGGAGUUCUACAGUCCGACGAUCGGUCAGAGGGUCUAUUGGCUCUUGCUUGAUGGAUCUGUUGUAGCAACUGGAACUCUGAGCAAAGGGAGAGGGGUCCCUGGAUGCUGGGUGGAGCUGGGGGACCUUGGGUAGCAGAUAUUCCAACAGAGGAUUGAGCAUCA
B4: 115940733_115940853_919_3pUTR_ENSMUSG00000034341_ENSMUST00000074628|mouse|control|control (ssRNA)
RNA: GGGAGUUCUACAGUCCGACGAUCGCUAACUUUAUACUCAGGCCUGGGGAAGAACAGGGCCCUCCCUGGCCUCCUGGAAUCCCAGAUGCAGCCCCACGGGAGGCCCAGGAAGGGGUCUCUGGGUAAGAGGCGGGAAGUGGGCAGCAACAGAGGAUUGAGCAUCA
B5: chr5:128440902:128440903:+_ENSG00000066583_ENST00000173527|hu_mus|hu_hu_hu_mus_True|18_108 (ssRNA)
RNA: GGGAGUUCUACAGUCCGACGAUCUUGAACCGUGCUCCCAAGUCCUUUGGGGUAUUGUUCCGUUAUGAUAACUGGAAUCCCUAAGAUCCGAGCUCCUUGCAACAGUCUCUGUCCCACGCUAAUAAUAUCCCCAAAGUAUUUGAUCAACAGAGGAUUGAGCAUCA
B6: chr12:113201503:113201504:-_ENSMUSG00000021290_ENSMUST00000021719|mus_hu|FALSE|FALSE (ssRNA)
RNA: GGGAGUUCUACAGUCCGACGAUCCCGGAUUUUAUAAACGAUGAAGCCCAUCAGCCCCAUUCCUAUCCAAAUCUCCUGGUAAACUUUGGUGUAGUAGGGCUUCAUGGGGAUCCAUAUGUUUUUAAUAAUACUUUGAAGCAUCUUCAACAGAGGAUUGAGCAUCA
B7: 131177157_131177277_6978_3pUTR_ENSG00000128585_ENST00000352689|human|control|control (ssRNA)
RNA: GGGAGUUCUACAGUCCGACGAUCCUCAAGCAAUCUUCCCGUGUCAGCCUCCCAAAGGUCUGGGAUUACAGGCGUGAGUCACUAUGCCCAGCCUAAAUUCACAUUCUUGAGGGGAAGAGACAUAUAUAAGGCUGCAUUAUUUUUCAACAGAGGAUUGAGCAUCA
B8: chr5:145543945:145543946:-_ENSG00000133706_ENST00000545646|hu_hu|hu_hu_hu_mus_True|38_78 (ssRNA)
RNA: GGGAGUUCUACAGUCCGACGAUCCUGAACGGCCAGUGGUGGGAAAUAAUCAAGCCAAUGUUCUGCUUCAGAAAACUUCACUAUGUCGUCAUCAGAGAGGCCAAGGGAUUUCAUAAUGUCCCACUGGUACUUAGAAGAUCCUGCCAACAGAGGAUUGAGCAUCA
B9: chr17:5336369:5336370:-_ENSG00000108561_ENST00000225698|hu_hu|FALSE|FALSE (ssRNA)
RNA: GGGAGUUCUACAGUCCGACGAUCGGCUUUCAGCAUCUGUCUGCUCUACUGGCUCUUGACAAAACUCUUGAGGUCUUCAAGAAAAGUAAUGUACUCCUGGUGCUCCAGGGCUGUGCUGAGCUCCACCAGCUCAUCUGCAAAAGUCAACAGAGGAUUGAGCAUCA
B10: 46582372_46582492_2479_3pUTR_ENSG00000111371_ENST00000398637|human|control|control (ssRNA)
RNA: GGGAGUUCUACAGUCCGACGAUCGUAGGAAAAUUAUUUCAGAAUCUGGAUGUAUAAUAAAUAAACAUUAUUGUAUAUCAUGUUUUCAAAGUUCUAAGAGACCGGGAAGCCACAAAACAUAGAGUUAGAUGGGUAAAAAAUGAUCAACAGAGGAUUGAGCAUCA
B11: chr12:76570751:76570752:-_ENSMUSG00000021051_ENSMUST00000021447|perfect_dup|FALSE|FALSE (ssRNA)
RNA: GGGAGUUCUACAGUCCGACGAUCUGUUUCAUAAACAAACCUUAGAAAAAUAUUGUUAAUUUGUUUUCGGAUAAAUGCUCUAAGCCCGAGAAACUUGCCAUAAAUCCUGUGCAAGACUGUUUUUAAAUAGUCCCGUUCUCGAGGCAACAGAGGAUUGAGCAUCA
B12: 12980288_12982455_1297_CDS_ENSG00000213782_ENST00000358007|human|control|control (ssRNA)
RNA: GGGAGUUCUACAGUCCGACGAUCAGCCACCUUGUUCCUGACACCAAUAGCACCCUCUGUGUCAUCAUUAUCUCCAGCAUCCUCUCGCGAGCGUUUCUUCUUUUCUCCAUGCUCCCUUAACUCCAUUCGGGCAAACCUUUGGGCCAACAGAGGAUUGAGCAUCA
B13: 30271051_30271171_222_3pUTR_ENSMUSG00000026853_ENSMUST00000028207|mouse|control|control (ssRNA)
RNA: GGGAGUUCUACAGUCCGACGAUCUCACGGGGCGGAGCUUUGGUGGCUCGCAGUCCCCGGCCGCUCGCCCCGAUCUCGGGGUGGGCCCAAGCCGGGGAGUGGCCGCAGAGGGCGGGGCUUGCGGAGACGGACCUCUAGCUCAGCCAACAGAGGAUUGAGCAUCA
B14: chr11:120422317:120422318:-_ENSMUSG00000025130_ENSMUST00000026122|mus_hu|FALSE|FALSE (ssRNA)
RNA: GGGAGUUCUACAGUCCGACGAUCCUGCCUGGAGAUGGAUCCCUUUCCAAAAACCGAAAAGCAGAAGGAAGAGACGGGGGUGAACGGACGGUGUGUAGGGGUGAGGUGUCACUUCAGAGAGGUUCCCUGGGUUUCCGGCGACGCCAACAGAGGAUUGAGCAUCA
B15: chr4:42069135:42069136:+_ENSG00000014824_ENST00000513699|hu_hu|motif|central (ssRNA)
RNA: GGGAGUUCUACAGUCCGACGAUCGCUGCUAUUAUAACUCCCAAGACUGCAGCAGUAUCCUCCAAUAAUAUCACAUUUGUACGGGGAUCACGACUUUCCAUUACAUACUUGUAAAAUGACAUUCCUUUAGCCCGAGCAUUCCUACAACAGAGGAUUGAGCAUCA
B16: 116024381_116024501_2413_3pUTR_ENSG00000136868_ENST00000374212|human|control|control (ssRNA)
RNA: GGGAGUUCUACAGUCCGACGAUCUCUGCUUGGUAUAAGCACAGUUGUUGGAGCCUGAGGAAAACCUGGCCAUCAACAAACCACAGCCUGAGUCUUUCCAAAGAGAAAGCUGGGCUUUUGCCCUUCUGGCCCAUGACUGGUAGACAACAGAGGAUUGAGCAUCA
B17: chr7:56126341:56126342:+_ENSG00000146731_ENST00000540286|hu_mus|hu_hu_hu_mus_True|1_1 (ssRNA)
RNA: GGGAGUUCUACAGUCCGACGAUCCAUGUUUCUCCUCUUGGCUCUGCGCAGAGCUACGAUCCCUUCUUUCGCAAGGGCAUCUAAGGAAAAGGGGUCAAUCCCCUUUUGAUUAAUAACGACAAAUCCUUUAUCUGAGUCGCCACACAACAGAGGAUUGAGCAUCA
B18: 18505097_18505217_937_CDS_ENSG00000101310_ENST00000262544|human|control|control (ssRNA)
RNA: GGGAGUUCUACAGUCCGACGAUCAAAUGUGAUCAGACCCACCAGAGCAUCUGGAGGAAGAAGACUCAGGGACAUCUGCAGGGACUCUUUGAGUGCUUGAAGGUCAUCUUCCUCCAGGCAUGUGUCAACCACAUAGAGAAAGAUCAACAGAGGAUUGAGCAUCA
B19: chr5:136386232:136386233:-_ENSMUSG00000051391_ENSMUST00000055808|mus_mus|FALSE|FALSE (ssRNA)
RNA: GGGAGUUCUACAGUCCGACGAUCAAACUGAGAACCCAUGGCUUGGCGUCAUGUAUGGCUGUCAUGUAUAAAUACUGUAAACUACAAUUGAGUGUUAAUACUGUCAACCCGUCAGAGACUUCCAAAUACAGGGCCACGUCUAACCAACAGAGGAUUGAGCAUCA
B20: chr8:104447970:104447971:+_ENSG00000164934_ENST00000297579|hu_hu|hu_hu_hu_mus_False|8_108 (ssRNA)
RNA: GGGAGUUCUACAGUCCGACGAUCAUAUACCUCCCUGCUUCGGCUCUUGUCCACAGGAAAGAUUCUAAUAGACUUAUCAAAGCUGGCAGACACAAAUUCCUUCCCAGUGGGAGAGUAGUCCACAUCAAGCACUGCAGACACGUGCAACAGAGGAUUGAGCAUCA
B21: chr7:149068622:149068623:-_ENSMUSG00000025139_ENSMUST00000001950|mus_hu|mus_mus_mus_hu_False|1_78 (ssRNA)
RNA: GGGAGUUCUACAGUCCGACGAUCGUGAGGCCUCUGAGUGUGGCUUGUGGUCUGUCCUGUCUGCAGUUUGUUAAUAUCACGGAACAUACCAUCUAGAACGUUCCAGUCCCGCCUGACACCUUCAUUCCCAAUGGAGAAUCUGCUCAACAGAGGAUUGAGCAUCA
B22: 36723423_36724012_341_3pUTR_ENSMUSG00000022285_ENSMUST00000022894|mouse|control|control (ssRNA)
RNA: GGGAGUUCUACAGUCCGACGAUCUCAAACGCUUCUGGCUGCAGGAAGCGGCCUUAGACCUUUUAAGGCUGGGAAAAGCGCGAGGCUGAAUGACGCCCUGCCUUUCCAGUCGCGAGCUCGGCGUCCACACCGUGACAGCCGCGGCAACAGAGGAUUGAGCAUCA

The test concerns the target T1, UNK ZnF1-3. Put plainly: nsRBNS (natural sequence RNA bind-n-seq); RBNS binding buffer (assumed for nsRBNS): 25 mM Tris pH 7.5, 150 mM KCl, 3 mM MgCl2, 0.01% Triton X-100, 500 ug/ml BSA, 20 U/ml SUPERase-In, 4 C; UNK is unkempt and MSI1 is Musashi-1; names of the RNAs are library labels; protein concentration not given here; high values mean tight binding.
B1: the binding signal was found to be 0.536 enrichment R. Consider B2, for which the binding signal was 1.27 enrichment R. For B3 the value was 1.47 enrichment R. B4 yielded a binding signal of 0.867 enrichment R.

B5 yielded a binding signal of 0.785 enrichment R. In turn, B6 gave a binding signal of 0.513 enrichment R.

B7 gave a binding signal of 0.997 enrichment R. Molecule B8 gave a binding signal of 1.13 enrichment R. The molecule B9 showed a binding signal of 1.07 enrichment R. Molecule B10 gave a binding signal of 1.82 enrichment R. In the case of B11, the binding signal came out at 2.19 enrichment R. For B12 the value was 0.981 enrichment R. With B13, the binding signal was determined as 0.932 enrichment R. In the case of B14, the binding signal came to 1.81 enrichment R. For B15 the value was 1.11 enrichment R; for B16, 1.18 enrichment R.

Regarding B17, the binding signal worked out at 0.912 enrichment R. B18: the binding signal is 0.77 enrichment R.

In turn, B19 yielded a binding signal of 1.33 enrichment R.

The molecule B20 yielded a binding signal of 1.04 enrichment R. Consider B21, for which the binding signal amounted to 0.795 enrichment R. Turning to B22, the binding signal stood at 0.524 enrichment R.
